# Data as given in article PMC8865542, “The Large Nonstructural Protein (NS1) of Human Bocavirus 1 Directly Interacts with Ku70, Which Plays an Important Role in Virus Replication in Human Airway Epithelia” (Journal of Virology, 2021).
# B1: Ku70 domain B (β-barrel domain) with Strep-tag II (domain or fragment)
# chain: not shown
# notes: also called Strep-tagged domain B; source: E. coli BL21(DE3), purified (Strep-Tactin agarose); not shown: Strep-tag II, C-terminal, kept
# B2: Ku70 domain C (C-terminal domain) with Strep-tag II (domain or fragment)
# chain: not shown
# notes: also called Strep-tagged domain C; source: E. coli BL21(DE3), purified (Strep-Tactin agarose); not shown: Strep-tag II, C-terminal, kept
# Assays:
# [1] = molecular target: T1, HBoV1 NS[…] with Flag and His tags (human bocavirus 1 (HBoV1)); assay: pull-down; details: both partners purified
# T1 construct: source: E. coli BL21/DE3 pLysS, purified (His tag, Sephadex G75)
# [2] = molecular target: T1, HBoV1 NS[…] with Flag and His tags; assay: BLI; details: both partners purified
Binder,binding result [1],Kd [2] [nM]
B1,binds,–
B2,–,180
